Measurements: the supplement of paper PMC11417369
± gives the standard deviation of the averaged measurements. The list shows a part of the results.

system: PfAP2-G AP2 domain (GST-tagged); assay: gcPBM binding intensity (ln(normalized median fluorescence intensity)); higher = stronger DNA binding
Outline: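 For binding intensity, the highest Masliner-normalised natural-log median intensity across replicate spots of either probe orientation was taken. Protein bound to the array was stained with Alexa488 anti-GST antibody and scanned at 488 nm. The protein, GST-tagged P. falciparum DNA-binding domains from E. coli at about 25 μg on average, had been applied for 1 h to an Agilent 4 × 180k array of primer-extended double-stranded 36-bp intergenic genomic probes and negative controls.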

Sequence | gcPBM binding intensity (ln)
CACGTATATATATATACACACACATATATATATGTA [CACACA_site7948] | 10.08 ± 0.071
TTTTTGTTCTATATGGTGCATGTTTATATTCGTATT | 10.2 ± 0.19
ATTAGCAACATTGATAAATATAAACACACGAAAACA [TGCATGCA_negctrl_site97] | 10.115 ± 0.007
AATGAATCCTTATATACACACATTATTATATTATAT [CACACA_site3108] | 10.07 ± 0.035
GTTCATATCTTTTGAGCACACATATATATATATAAA [CACACA_site9099] | 10.1 ± 0.11
ATGATTATAATTTAAAATATTTTACATAACCATTTC [GTGCAC_negctrl_site297] | 9.79 ± 0.099
TTTAGCTATTATAGCTGTACAATGATAAAATAAATT [XGTACX_site6318] | 10.7 ± 0.39
ATAAGTAAAAATAAAAAAAAAATATATATATATATA [CACACA_negctrl_site1816] | 9.82 ± 0.48
TTTTTTATATATACATATATATAAATATATATAACT [GTGCAC_negctrl_site385] | 9.59 ± 0.2
ATATTAATAATATATGCATGCATTAACATATTGAAA [TGCATGCA_site951] | 9.725 ± 0.064
GTATGTATGTATATATGTACACATTATTATTTAATG [XGTACX_site5802] | 11.6 ± 1
ATTGATACATCCAATACACACTACATATAATGATGT [CACACA_site8561] | 10.3 ± 0.2
GAGAAAAGGAAATTCACACATATAAAGAAAGATCTA [CACACA_site5420] | 9.865 ± 0.064
TTTTTTTTGATATATACACACAATAAATAAATATAA [CACACA_site7400] | 10.1 ± 0.29
ATTTATTATTATATCACACATAATATATTAAATGAT [CACACA_site5821] | 9.735 ± 0.049
TGTTTGCTTATGTGTTAAATATATATATATATATAT [TGCATGCA_negctrl_site218] | 10.1 ± 0.25
ATTTTAGGAAAAAAAAGTACATATAATTTTTTATAT [XGTACX_site6954] | 11.4 ± 0.96
CGAACACAAACACAAACACACATCAGATATAAATAT [CACACA_site6736] | 9.85 ± 0.014
ATGTTCGATGATAAATGTACAAAAATAATGGAAGTA [XGTACX_site1916] | 10.9 ± 0.41
TATAAAAATATTGAAAGTACTTATTAAAATATTATT [XGTACX_site3701] | 11 ± 0.64
TTTCCTAGCACATGCACACAAAAAAAAAAAAAAAAA [CACACA_site1404] | 10.2 ± 0.55
CTTGCAAAAAGTATATGTACATATATATATATATAT [XGTACX_site5792] | 11.2 ± 0.7

Sequence | gcPBM binding intensity (ln)
TATGGAGAAATAAATAGTACGTATTTTATTTAAAAA [XGTACX_site3129] | 11.2 ± 0.76
AAAAATATAAAAATAGCACACATATATACATATATA [CACACA_site7901] | 9.83 ± 0.014
TATTCCTAATTGACAACACACACAACAAAAAAGGGA [CACACA_site8350] | 10.4 ± 0.33
CTATAATATGGTATTACACACTGTTATAAGTATGGC [CACACA_site7068] | 10.02 ± 0.014
TATAAATAGAGACACACACACATATAAATAAATATT [CACACA_site7854] | 10.1 ± 0.26
TATATTTCTTCTATAACATGCAGATATATGAAAATA [TGCATGCA_site971] | 9.725 ± 0.064
ATATATTTTTTGAATACACACATATTATCTGTAATA [CACACA_site4826] | 9.92 ± 0.014
ATTATTAACATATATATACACACGAAAAAATTATAT [CACACA_site625] | 10.1 ± 0.11
TAATGAAATATTATGTGTACTTAAAAATTATTAAAT [XGTACX_site5261] | 11.5 ± 1
AGAATTATTTTATGTTTGCACTTTTTTTTTCTATAA [GTGCAC_site9876] | 10.3 ± 0.049
TATATTTAATTATTATGTACTTATAATTTTTGAAAG [XGTACX_site8548] | 11.4 ± 0.96
ACATGAAATGTTTAAAGTACATATATAAATTTTTTT [XGTACX_site4519] | 11.1 ± 0.7
ATATATAGATAATCAAGTACATAACAAGATATAAGA [XGTACX_site2186] | 11 ± 0.64
TACTGATCTTTCTAGGTGCGCTGCTACCATTATCGT [GTGCAC_site9538] | 10.2 ± 0.17
AAATGTGAAGTGAATACACACCTAATAAATATAACA [CACACA_site5727] | 9.98
TATGAAATATCGTGCACACACGAATAATATAAGAAT [CACACA_site4842] | 10.3 ± 0.28
AAAATAAAAAATATAACACACAATAAATATTTATAT [CACACA_site6986] | 9.81 ± 0.028
CTTTCCTATTTGACACGTACGAAATTTTACATAAAA [XGTACX_site6689] | 10.9 ± 0.55
AAATATATATACACATATATATATATATATATATAT [CACACA_negctrl_site1742] | 9.96 ± 0.4
CAAGTATTAATTATGTGTACATATATATATATATAT [XGTACX_site5311] | 11.4 ± 0.82
TATATATATAATATTACACACATATATTTATATTTT [CACACA_site3460] | 9.82 ± 0.14
ATTTATACATGCTAATGTACTTATTTCACCTATATC [XGTACX_site3120] | 11.3 ± 0.96

Sequence | gcPBM binding intensity (ln)
TATGGTATATACAACACACACACATATGTATAAATA [CACACA_site6562] | 10.4 ± 0.24
TATGTATTTATCCACTTACATTTTTACTTTTCCATT [CACACA_negctrl_site1141] | 10.02 ± 0.049
TACACAAGCAGACACACACACATATAGATTTATATA [CACACA_site6715] | 10.1 ± 0.21
GCCATAAAAATATATACACACATAAAAAAAAATTAT [CACACA_site1176] | 10.1 ± 0.31
TATAATGAGGATAATAGTACATATGAATACAAAAAA [XGTACX_site3665] | 11.1 ± 0.57
TTAATATTGTATTTCACACATAATTTAATATACTCA [CACACA_site5678] | 9.79 ± 0.12
AAAAATAAAAATTGCACACTAAAAAATTACGCACGA [CACACA_site3418] | 10.095 ± 0.007
ATTTATATATTTATACGTACTTATATATTGTTACAT [XGTACX_site6254] | 11.2 ± 0.73
TAGAAAATATAAAAATGTACGTAAATAAAATGTGCA [XGTACX_site3459] | 11.4 ± 0.91
TTAAATAAGTAATTATGTACATATAATATTCTTTAT [XGTACX_site5280] | 11.2 ± 0.72
TATAGGAATATATGGTGTACCTATAAATCTGACATA [XGTACX_site8111] | 11.2 ± 0.75
TCTTAAGGAAAAGAGTGTACAGAAATTTTTATTAAC [XGTACX_site6139] | 11.2 ± 0.7
ATCCGAGTGTGAAATACACACATGATAATGTGAATG [CACACA_site919] | 9.94 ± 0.11
AATTATATTACAAACTGTACATATATAATTTGTCCA [XGTACX_site6009] | 11 ± 0.67
ACACATACTAAAATGTTGTGAAATATGATAATGTGA [CACACA_negctrl_site851] | 9.78 ± 0.2
TTATAATAATAGAACTTTATGTAGAAAAAAGGAAAA [XGTACX_negctrl_site116] | 9.83 ± 0.11
TCTTAAAAAATAGGGACACGTAAATATAATATATAA [CACACA_negctrl_site554] | 11 ± 0.65
AAAAAAAAAAAAAAAACACACATATATATATATATA [CACACA_site2436] | 10.4 ± 0.69
CACAGACACGGACACACACACACACCCACATATATA [CACACA_site4355] | 11.4 ± 1
ATATATTTTAAATATATTATTATTGCATTGTGAAAA [TGCATGCA_negctrl_site106] | 9.75 ± 0.21
TATATATATATATATAGTACATATTAATTAATTTAT [XGTACX_site8198] | 10.8 ± 0.63
AAAAAAAAAAAATAGACACACATATTATATATATAT [CACACA_site1419] | 9.88 ± 0.28

Sequence | gcPBM binding intensity (ln)
TATTATTCTATACATTGTACATATTTTATAGTATGT [XGTACX_site73] | 11.1 ± 0.52
TTCATATAACCTTATAGTACATAATTAAAAATATAA [XGTACX_site6328] | 10.9 ± 0.71
AAAAAAAAAAAAAAAACACACATATAGGTATAAATA [CACACA_site7528] | 10.2 ± 0.29
CACGCATATATACATACATGCATATATACATCCATG [TGCATGCA_site667] | 9.95 ± 0.085
TTTAAAACCTTACATACACACAAATATGTAAATATA [CACACA_site6464] | 9.92 ± 0.11
AAACTTGACAGACACACACACACATATATAAAAAAA [CACACA_site757] | 10.3 ± 0.48
GTTATATTATTCATACGTACCTATATTTCTATTAAC [XGTACX_site3447] | 10.9 ± 0.45
ATATCTATAATAAATACACACATTTATATAGATAAA [CACACA_site7518] | 9.95 ± 0.22
AACAGCATTATTTCTTATTTTTTTTTTGATATATTT [GTGCAC_negctrl_site114] | 9.79 ± 0.042
TGATAACCTCACAAATGTACGTACGGGGCTAGCATT [XGTACX_site4157] | 11.4 ± 0.78
ATGTGTTGGGAAAAGGCATGCACTTTTTTTTTTTTT [TGCATGCA_site707] | 10.2 ± 0.11
TTTTCCTTATATTATGCATGCAGGGTTTGACATTAT [TGCATGCA_site826] | 10.1 ± 0.18
CAAGGAACCAGACACACACACATAAATGTATTTATA [CACACA_site6491] | 10.1 ± 0.16
TTTTTTTTTTTCTTTTGTACGTATAAAATTATATAA [XGTACX_site2453] | 11.5 ± 0.66
TTAGGCAAGGCGGGGGGTACGTTTTTATATAATTAT [XGTACX_site8029] | 11.6 ± 0.87
TTAGATTTATAAGTGTGTACGTAAAATACTTAATAA [XGTACX_site8246] | 11.6 ± 1.1
AACTCATAAAATAATGGTACACAAAAAAAATAAATA [XGTACX_site7648] | 11.4 ± 0.81
TGTGTGTGCTTATTTTGTACATATTAGGTAAATATT [XGTACX_site6329] | 11.1 ± 0.63
TTTATGGAATAATCACGTACACACAAGAAAAAAAAA [XGTACX_site985] | 11.4 ± 0.91
TTTTTATCTAATCTAATATTATATTATACATATAAT [XGTACX_negctrl_site275] | 9.725 ± 0.035
AAAGGAAATAAAAACGCACACAGAAATAATATCTAT [CACACA_site457] | 10.07 ± 0.099
ATATTTCATTTTTGTACACACAACGTTGGAGGGTTT [CACACA_site3043] | 11.4 ± 0.77
